Data published in the supplement of paper PMC3334620.
Over roughly 33,000 sequences, “E-score (-0.5 to 0.5)” has its median near -0.035; the highest 2% begin near 0.35. The list shows a part of the results.

Each sequence was assayed against T1, Pdr3 (UniProt P33200) (assay: PBM E-score (8-mer binding enrichment) (E-score (-0.5 to 0.5)); higher = stronger / more preferred TF binding; most listed sequences are background and not binding sites). Conditions: protein concentration: 200 nM; construct: GST-full length.
T1 sequence: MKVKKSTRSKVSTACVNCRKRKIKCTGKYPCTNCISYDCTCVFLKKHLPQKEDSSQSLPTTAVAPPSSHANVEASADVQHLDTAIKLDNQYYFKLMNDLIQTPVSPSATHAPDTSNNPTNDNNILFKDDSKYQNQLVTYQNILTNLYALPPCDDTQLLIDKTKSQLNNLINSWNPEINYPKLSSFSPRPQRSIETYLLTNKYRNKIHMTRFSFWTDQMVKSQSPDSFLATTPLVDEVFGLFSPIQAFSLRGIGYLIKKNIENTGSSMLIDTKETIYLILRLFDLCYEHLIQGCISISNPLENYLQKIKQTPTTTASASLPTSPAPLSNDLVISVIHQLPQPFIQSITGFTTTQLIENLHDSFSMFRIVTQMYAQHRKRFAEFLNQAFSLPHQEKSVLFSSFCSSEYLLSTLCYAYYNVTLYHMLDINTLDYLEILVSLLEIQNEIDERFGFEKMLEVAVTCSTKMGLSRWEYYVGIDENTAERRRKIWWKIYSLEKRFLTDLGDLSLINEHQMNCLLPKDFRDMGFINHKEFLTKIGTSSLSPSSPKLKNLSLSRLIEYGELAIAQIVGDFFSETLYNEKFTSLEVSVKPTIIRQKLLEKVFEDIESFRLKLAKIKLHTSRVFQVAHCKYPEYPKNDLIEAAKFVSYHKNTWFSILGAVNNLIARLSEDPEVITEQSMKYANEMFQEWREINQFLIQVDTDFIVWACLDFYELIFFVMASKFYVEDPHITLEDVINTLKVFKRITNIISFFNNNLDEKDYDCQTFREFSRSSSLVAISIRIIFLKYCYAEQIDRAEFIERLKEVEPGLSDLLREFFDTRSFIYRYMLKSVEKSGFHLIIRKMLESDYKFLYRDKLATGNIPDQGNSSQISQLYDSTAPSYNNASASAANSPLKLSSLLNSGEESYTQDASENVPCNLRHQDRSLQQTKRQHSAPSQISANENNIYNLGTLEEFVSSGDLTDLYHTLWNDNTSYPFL
In short: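 Yeast transcription factors carrying a GST tag, as full-length proteins or DNA-binding domains, were produced by PURExpress in vitro transcription/translation. About 100-200 nM protein was applied to universal all-10-mer Agilent arrays, double-stranded by primer extension on fresh or once-stripped slides. Bound protein was detected with fluorescent anti-GST, and scans were normalised with masliner. The Universal PBM Analysis Suite gave each ungapped eight-base word, pooled with its reverse complement, an E-score, a modified Wilcoxon-Mann-Whitney statistic.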

Sequence | PBM E-score
ATTAAAAG | -0.0236
ATAAAGAC | -0.171
ATCCGCTC | 0.307
AAACGCGA | -0.0544
GTCGCGTA | -0.118
ATCGCCAT | 0.105
AGGTGCAA | -0.0808
GTCGAGAA | -0.173
GGAAATCA | 0.195
CCCCAAAG | -0.181
ATGGACAG | -0.129
ATATCTCC | 0.216
GTGAAGAA | -0.0697
AGGGCGGG | 0.25
AGACCAAT | -0.0713
TACTTGAA | -0.203
GCAGTACA | -0.206
CAACGAAG | -0.188
AAGGCCAG | -0.0965
AGCGTACT | -0.119
CTACCAAG | -0.0913
ATATGTTG | -0.0438
CCGTCCGA | 0.232
ACACGTCC | -0.0777
CATTGACG | -0.138

Sequence | PBM E-score
CCGTAGCA | -0.0556
GAACGAAA | -0.035
AGGTTAAC | -0.107
CCAGTGGG | -0.0745
GGTACTTA | -0.0528
ATAGAGTC | -0.0137
ACCTTTGC | -0.146
AAATCGCT | -0.0798
CAGTAGCC | -0.204
AAGATCGC | -0.0622
CCGGGAAG | 0.359
AGAGTATG | -0.141
CGATACAG | -0.0304
CCAATTTC | 0.202
CGACAACG | 0.113
AACTGCGG | 0.258
ATTAACGA | 0.0706
AATAGAGG | -0.0999
CCGCCGAG | 0.326
ATCTTACG | 0.00222
AAGTTTGG | -0.0671
CTGGAGGC | -0.0557
AGTTTATC | 0.0974
CTTTGCCA | -0.108
ATTGCGGC | 0.0253

Sequence | PBM E-score
ATTATCTG | 0.0253
ACCGCAAA | -0.0146
ATTCGGGA | 0.185
CCATCGTA | -0.0764
AATTCTTA | -0.0202
CCCGGGAA | 0.443
GACAGACA | 0.221
AACATGTC | 0.00625
CAGTCCTA | -0.243
CAGCGATG | -0.0711
GAGTTGAC | 0.0303
GAGCCAAC | -0.189
ACCGGACT | 0.285
AACTAGGC | -0.16
CGCTTCCG | 0.419
AGTTCCCG | 0.299
AGCAAGAA | -0.0735
GGGTTTGA | -0.0398
ATTTCGGA | 0.327
GTGTGTCA | -0.0981
GGACACGA | 0.0948
CATCAGAA | -0.165
GAAACCCC | 0.0513
AGGGCTGC | 0.0386
TACACTAA | -0.177

Sequence | PBM E-score
ACATCACG | -0.233
ACCGCCCC | 0.148
ATGAGATG | -0.0139
CCCCGCTC | 0.0129
ACGGTCCA | 0.0173
CGATCAAC | -0.143
GCTATATA | -0.0719
GTCTGCAC | -0.141
AGCTTAAG | -0.0452
AAAGAGCC | -0.113
ATGGCCTG | 0.0418
CTTTGCTC | -0.0557
TAGCTGAA | -0.0744
GGAGACTA | -0.0407
ATTTCATG | -0.143
GATATGGC | -0.0279
CCGGGAGG | 0.334
CGAAATGA | 0.188
CAGAAGGC | 0.0006
CTGTTGGA | -0.131
AGACAGAA | -0.122
ATTGAGTA | 0.0495
GGAAGAGA | 0.207
CCGCCAGC | 0.105
GAACGTCA | -0.175

Sequence | PBM E-score
CGGTATTA | 0.248
ACAGATGG | -0.0979
AGGATGAC | -0.298
ATGGTCGA | -0.0615
ACACGTGT | -0.222
AGAGTCAT | -0.255
GCGCGTTA | 0.0926
AGCGTCAA | -0.111
ATTGACGC | -0.11
ACTTCGAA | -0.241
ACCCCCAC | -0.319
TAAGGGGA | -0.12
ATAACAAT | -0.054
ATCATCGG | 0.276
AAGGACCA | -0.0737
ATATCGCA | -0.0575
AGCGGGAT | 0.237
CAGTATCC | 0.0371
CGGATAAC | 0.333
GAACCGAC | 0.167
GGGCGCAC | 0.0538
CTCCCTAC | -0.251
CGTGGTCA | -0.0865
ATAAAATG | 0.0593
ACTCTGGC | -0.0062

Sequence | PBM E-score
AATATTAC | 0.134
CGTTCGGC | 0.171
CGTAACTA | -0.12
AAAAGAGC | -0.248
AGTATATC | -0.034
ATGTAGGA | -0.158
ATCGACAT | 0.0562
CGGTTTTC | 0.188
ACCTCATC | 0.00577
CGGGCTTA | 0.0629
CGGACCCG | 0.392
GCTGCACC | 0.0174
CGCATTAC | 0.135
CTACCATC | -0.0753
AGAGCTTA | -0.0903
ATCTCATA | -0.113
CCCGGAAC | 0.467
AACTGTAA | 0.0127
GAGGCCGC | -0.0141
AAGAAACG | 0.0474
TCAGTCGA | 0.0772
CCTGAGAA | -0.204
CAGAGCGG | 0.185
CCTGCCTA | -0.152
AGTTGTTG | -0.0777

Sequence | PBM E-score
ATATACTA | 0.179
CCCGTGTA | 0.113
GAAGGCGA | 0.0906
ATCATACC | 0.0809
GGCTACCC | -0.18
GGATCCGA | 0.399
GACATGTC | 0.0183
ATTATCTA | -0.0477
ACCCGGAC | 0.317
AAAAAACA | 0.0589
GTTATGCA | -0.223
AGGTATTC | -0.0952
AATACGCA | -0.128
ACGCGGGC | 0.17
ACACCAGG | -0.174
AAATCAAC | -0.0285
CTCGCTCC | 0.0762
CCACGGAC | 0.34
CGAGCCAA | -0.0869
AGCGAGCA | -0.189
GTCGCCTA | -0.00145
AGTCGCTA | -0.19
